# Source: the supplement of paper PMC3334620
# In all, about 33,000 sequences were measured (“E-score (-0.5 to 0.5)”: median about -0.021, highest 2% from about 0.32 on). The list shows a part of the results.
# Biological target: T1, Zap1 (UniProt P47043)
# T1 sequence: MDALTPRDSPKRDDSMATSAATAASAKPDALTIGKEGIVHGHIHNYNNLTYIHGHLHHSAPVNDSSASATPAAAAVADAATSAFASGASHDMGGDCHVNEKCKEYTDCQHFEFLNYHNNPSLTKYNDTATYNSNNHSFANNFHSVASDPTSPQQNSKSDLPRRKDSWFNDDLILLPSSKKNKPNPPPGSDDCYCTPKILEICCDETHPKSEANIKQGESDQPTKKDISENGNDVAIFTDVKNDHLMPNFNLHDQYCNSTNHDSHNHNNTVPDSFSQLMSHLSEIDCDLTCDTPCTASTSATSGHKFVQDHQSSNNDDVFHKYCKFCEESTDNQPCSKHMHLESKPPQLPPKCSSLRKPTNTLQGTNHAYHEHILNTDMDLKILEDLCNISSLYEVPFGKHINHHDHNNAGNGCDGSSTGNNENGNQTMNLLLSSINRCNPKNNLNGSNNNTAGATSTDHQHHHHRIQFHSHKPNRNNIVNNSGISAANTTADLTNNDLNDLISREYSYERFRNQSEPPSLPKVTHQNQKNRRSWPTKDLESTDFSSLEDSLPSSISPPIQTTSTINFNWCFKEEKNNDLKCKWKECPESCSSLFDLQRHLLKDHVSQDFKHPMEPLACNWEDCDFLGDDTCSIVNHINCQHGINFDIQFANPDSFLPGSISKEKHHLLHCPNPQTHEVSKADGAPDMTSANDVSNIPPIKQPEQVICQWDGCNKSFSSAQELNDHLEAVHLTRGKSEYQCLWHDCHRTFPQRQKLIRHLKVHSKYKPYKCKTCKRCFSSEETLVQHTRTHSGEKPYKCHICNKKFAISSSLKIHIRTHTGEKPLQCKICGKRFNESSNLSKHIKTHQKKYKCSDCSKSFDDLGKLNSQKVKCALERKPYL
# Test: PBM E-score (8-mer binding enrichment) (E-score (-0.5 to 0.5)); higher = stronger / more preferred TF binding; most listed sequences are background and not binding sites
# Conditions: protein concentration: 200 nM; construct: GST-full length
# Summary of the method: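 The E-score, a modified Wilcoxon-Mann-Whitney statistic, was computed by the Universal PBM Analysis Suite for every ungapped eight-base word pooled with its reverse complement. Scans behind it were normalised with masliner after bound GST-tagged yeast transcription factors were detected with fluorescent anti-GST. The proteins, at about 100-200 nM, had been applied to universal all-10-mer Agilent arrays made double-stranded by primer extension.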
row,Sequence,PBM E-score
1,ACTGAGTC,-0.0962
2,CACCTAGC,-0.195
3,GTGATATA,-0.0995
4,GGCCGCGA,0.0539
5,AGGAATTG,-0.0401
6,CAGCTGAA,-0.0287
7,CCGAGTAG,-0.00973
8,ATCCCGGG,0.126
9,ATCAGCCC,-0.156
10,CCATATTC,0.0278
11,CAATGTCC,-0.0541
12,ACCTTCGG,0.112
13,GTGTTTCA,0.07
14,CTCGGCGA,-0.172
15,ATGTAACA,0.153
16,AAAGGAAA,0.0895
17,AGGAAGGC,-0.18
18,GCTATAAC,0.215
19,CTTCAGAA,0.193
20,CCCCACCC,0.357
21,CCCTACGC,-0.17
22,GCCTGAAC,-0.215

row,Sequence,PBM E-score
1,GGGCCACC,0.232
2,AAATCTAA,0.0835
3,AGTTTTGA,-0.0744
4,GCAGCAAA,0.0321
5,ACTCTAAT,0.0165
6,GATCCTCC,-0.328
7,ACTCCAAC,-0.0823
8,GGGCCCAA,0.148
9,CACGTGTC,-0.205
10,CGGGGGGC,-0.277
11,GGGATTGA,-0.176
12,GTGCCAGA,-0.276
13,CGGTATAC,-0.079
14,GGTATGCA,0.081
15,AGTGTAAA,0.193
16,TATCTCGA,-0.0269
17,CAGTATGC,-0.176
18,CGCTTGGA,-0.0704
19,GCCTCACC,-0.121
20,GGCTCGAC,-0.28
21,AAGGTTGC,0.343
22,ATCGATGG,0.0383

row,Sequence,PBM E-score
1,AGAGGCCT,-0.0267
2,ACTCACCT,-0.0726
3,AAAGAGCA,0.0418
4,AGCGCCAA,-0.257
5,CGGGACAG,0.0162
6,GTTGCTCA,-0.0435
7,GAGTTTCC,-0.061
8,ACAGAGTC,-0.197
9,GTTACCAA,0.362
10,CCGAGAGA,0.163
11,CGGACAGC,-0.261
12,ACGCGCGA,0.0553
13,AGTTATAT,0.0232
14,AACTCATA,0.0542
15,GTACGAAA,0.134
16,ACTCTAGG,0.0301
17,GAACTATA,0.0416
18,ATTGCCTG,-0.0833
19,GAACATTA,0.0396
20,AGGGCCTG,-0.0732
21,CCATCACA,-0.045
22,CACGGATG,-0.105

row,Sequence,PBM E-score
1,AACTGATG,0.0405
2,AAAGGGTA,0.415
3,AAGCGCCC,-0.285
4,CAAGGGGA,-0.129
5,TCAAATCA,-0.00999
6,CGAGTCTA,-0.218
7,AAAAACCT,0.286
8,CTGCCCGA,-0.0867
9,CGGTGACC,0.327
10,AGCAACCA,0.0671
11,AAATCGGC,-0.0898
12,AGTATTAG,0.153
13,TACCATCA,0.192
14,AGGGGACC,0.151
15,CGCTTTGA,0.0708
16,ATAATAAA,0.219
17,AACTCGCG,0.124
18,ACTAGTCC,-0.2
19,CTAATACC,0.185
20,ATTAGTTG,0.24
